This passage reports binding results from publication PMC4196162.

Assay [1] addresses T1, ß-catenin (human (endogenous in MCF7 and T47D)), P35222.
T1 chain: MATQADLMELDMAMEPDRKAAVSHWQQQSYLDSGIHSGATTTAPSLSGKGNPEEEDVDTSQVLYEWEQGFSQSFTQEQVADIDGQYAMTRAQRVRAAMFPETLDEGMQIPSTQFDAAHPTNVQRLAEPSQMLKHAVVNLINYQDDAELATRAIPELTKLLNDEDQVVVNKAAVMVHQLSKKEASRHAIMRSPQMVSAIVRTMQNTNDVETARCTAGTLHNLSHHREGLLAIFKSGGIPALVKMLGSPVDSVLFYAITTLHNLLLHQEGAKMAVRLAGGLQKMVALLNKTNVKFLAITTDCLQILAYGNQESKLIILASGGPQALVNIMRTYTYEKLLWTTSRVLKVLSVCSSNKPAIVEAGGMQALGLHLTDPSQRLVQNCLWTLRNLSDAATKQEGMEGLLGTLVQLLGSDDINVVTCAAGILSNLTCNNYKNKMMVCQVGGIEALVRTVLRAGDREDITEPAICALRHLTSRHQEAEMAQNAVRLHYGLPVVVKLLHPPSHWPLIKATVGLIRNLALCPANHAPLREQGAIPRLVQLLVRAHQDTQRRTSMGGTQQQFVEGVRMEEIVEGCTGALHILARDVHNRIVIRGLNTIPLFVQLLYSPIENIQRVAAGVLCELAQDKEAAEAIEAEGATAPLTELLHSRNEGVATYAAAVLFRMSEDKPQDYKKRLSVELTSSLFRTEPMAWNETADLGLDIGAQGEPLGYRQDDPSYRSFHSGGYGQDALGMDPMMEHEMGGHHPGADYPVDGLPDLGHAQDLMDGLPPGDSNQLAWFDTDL
Nature of the assay: co-IP; endogenous proteins, T47D whole cell lysates, Protein A sepharose; Western blot. The following applies: remark: other sources report otherwise. On the technique in general: A western blot detects proteins with antibodies after separation by electrophoresis.

Assay [2] concerns the target T2, Sp1 (specificity protein 1) (human (endogenous in MCF7 and T47D)), P08047. The assay is described as above. Particulars: remark: other sources report otherwise.
The target of assay [3] is T1, ß-catenin (human (endogenous in MCF7 …)). Nature of the assay: co-IP; endogenous proteins, MCF7 whole cell lysates, Protein A sepharose; mouse and rabbit IgG as negative controls; Western blot. Particulars: remark: other sources report otherwise.
For assay [4], the target named is T2, Sp1 (specificity protein 1) (human …). Described as above. The following applies: remark: other sources report otherwise.
Assay [5] addresses T3, ß-catenin (mouse) (mouse (endogenous in primary K19-BCL9-2 mouse tumor cells)), Q02248.
T3 chain: T1 chain with P706A
Nature of the assay: co-IP; primary K19-BCL9-2 mouse mammary tumor cells, whole cell lysates, Protein A sepharose; Western blot. The following applies: remark: other sources report otherwise.

Assay [6] has as its target ß-catenin (mouse) (mouse (endogenous in primary K19-BCL9-2 mouse tumor cells)) (UniProt Q02248). The assay is described as above.

Changes are numbered by the printed parent chain. These are yes or no findings as the source states them, for the method shown. In cells and extracts the contact can be indirect.

B1: estrogen receptor alpha (ER), P03372 1-595 (protein)
chain: MTMTLHTKASGMALLHQIQGNELEPLNRPQLKIPLERPLGEVYLDSSKPAVYNYPEGAAYEFNAAAAANAQVYGQTGLPYGPGSEAAAFGSNGLGGFPPLNSVSPSPLMLLHPPPQLSPFLQPHGQQVPYYLENEPSGYTVREAGPPAFYRPNSDNRRQGGRERLASTNDKGSMAMESAKETRYCAVCNDYASGYHYGVWSCEGCKAFFKRSIQGHNDYMCPATNQCTIDKNRRKSCQACRLRKCYEVGMMKGGIRKDRRGGRMLKHKRQRDDGEGRGEVGSAGDMRAANLWPSPLMIKRSKKNSLALSLTADQMVSALLDAEPPILYSEYDPTRPFSEASMMGLLTNLADRELVHMINWAKRVPGFVDLTLHDQVHLLECAWLEILMIGLVWRSMEHPGKLLFAPNLLLDRNQGKCVEGMVEIFDMLLATSSRFRMMNLQGEEFVCLKSIILLNSGVYTFLSSTLKSLEEKDHIHRVLDKITDTLIHLMAKAGLTLQQQHQRLAQLLLILSHIRHMSNKGMEHLYSMKCKNVVPLYDLLLEMLDAHRLHAPTSRGGASVEETDQSHLATAGSTSSHSLQKYYITGEAEGFPATV
In the case of B1, the binding entry in assay [1], in assay [2], in assay [3] and in assay [4] was “no binding” each time.

B2: estrogen receptor alpha (ER) (mouse), P19785 1-599 (protein)
chain: MTMTLHTKASGMALLHQIQGNELEPLNRPQLKMPMERALGEVYVDNSKPTVFNYPEGAAYEFNAAAAAAAAASAPVYGQSGIAYGPGSEAAAFSANSLGAFPQLNSVSPSPLMLLHPPPQLSPFLHPHGQQVPYYLENEPSAYAVRDTGPPAFYRSNSDNRRQNGRERLSSSNEKGNMIMESAKETRYCAVCNDYASGYHYGVWSCEGCKAFFKRSIQGHNDYMCPATNQCTIDKNRRKSCQACRLRKCYEVGMMKGGIRKDRRGGRMLKHKRQRDDLEGRNEMGASGDMRAANLWPSPLVIKHTKKNSPALSLTADQMVSALLDAEPPMIYSEYDPSRPFSEASMMGLLTNLADRELVHMINWAKRVPGFGDLNLHDQVHLLECAWLEILMIGLVWRSMEHPGKLLFAPNLLLDRNQGKCVEGMVEIFDMLLATSSRFRMMNLQGEEFVCLKSIILLNSGVYTFLSSTLKSLEEKDHIHRVLDKITDTLIHLMAKAGLTLQQQHRRLAQLLLILSHIRHMSNKGMEHLYNMKCKNVVPLYDLLLEMLDAHRLHAPASRMGVPPEEPSQTQLATTSSTSAHSLQTYYIPPEAEGFPNTI
For B2, the binding result in assay [5] was “no binding”.

B3: BCL9-2 in primary K19-BCL9-2 mouse mammary tumor cells (protein, UniProt Q67FY2 1-1494)
chain: MRILANKTRLPHPRRREAPGSPPLSPRGHCPPAPAKPMHPENKLTNHGKTGNGGAQSQHQNVNQGPTCNLGSKGVGAGSHGAKANQISPSNSSLKNPQAGVSPFSSLKGKVKRERSVSVDSGEQREAGTPSLDSEAKEVAPRSKRRCVLERKQPYSGDEWCSGPDSEEDDKPIAAAHNCNVADPAMVTPQLGPGQTAQLPLSESSAPGPQHGPQPGLRPDVPGGGGGGVPGKPPSQFVYVFTTHLANTAAEAVLQGRAESILAYHQQNVPRAKLDQAPKVPPTPEPLPLNTPSAGTPQSQPPPLPPPPPAPGSAPPALPPEGPPEDTSQDLAPNSVGAASTGGGTGGTHPNTPTAATANNPLPPGGDPGSAPGSALLGEATPTGNGQRNLVGSEGLSKEQLEHRERSLQTLRDIERLLLRSGETEPFLKGPPGGAGEGGPPAQAPSAAQPPPSAPPGGLKKYEEPLQSMISQTQSLGGPPLEHEVPGHPQGGDMGQQMNMMMQRLGQDSLTPEQVAWRKLQEEYYEEKRRKEEQIGLHGGRPLQDMVGMGGMMGRGPPPPYHSKPGDQWPPGMGAQLRGPMDVQDPMQLRPGPPFPGPRFPGNQMQRVPGFGGMQSMPMEVPMNAMQRPVRPGMAWNEDLPPIGGPSNFAQNAVPYPGGQGEAERFMTPRVREELLRHQLLEKRSMGMQRPLGMAGSGMGQSMEMERMIQAHRQMDPAMFPGQMTGGDGLAGTPMGIEFGGGRGLLSPPMGQSGLREVDPPMGPGNLNMNMNVNMNMNMNLNVQMTPQQQMLMSQKMRGPGDMMGPQGLSPEEMARVRAQNSSGMMGGPQKMLMPSQFPNQGQQGFSGGQGPYQAMPQDMGNTPDMFSPDQSSVPMGTVGTARLSHMPLPPASNPPGSVHLASNRGLGRRPSDLTISINQMGSPGMGHLKSPTLSQVHSPLVTSPSANLKSPQTPSQMVPLPSANPPGPLKSPQVLSSSLGVRSPTGSPSRLKSPSMAVPSPGWVASPKTAMPSPGVSQNKQPPLSINSSSTLGNVEQGALPPSAPRNSSSAPPANPSSGLMNPSLPFTSSPDPTPSQNPLSLMMSQMSKYAMPSSTPLYHNAIKTIATSDDELLPDRPLLPPPPPPQGSGPGISNNQPNQMHMNPAAAQSPMGMNLPGQQPLSHEPPPTMLPSPTPLGSNIPLHPNAQGTGGSSQNSMMMAPGGPDSLNAPCGPVPSSSQMMSFPPRLQQPHGAMAPTGAGGPGLQQHYPSGMALPPEDLPTQPPGPIPPQQHLMGKGMTGRMGDAYPPGVLPGVASVLNDPELSEVIRPTPTGIPEFDLSRIIPSEKPSSTLQYFPKSENQPPKAQPPNLHLMNLQNMMAEQTPSRPPNLPGQQGVQRGLSMSMCHPGQMSLLGRTGVPPQQGMVPHGLHQGVMSPPQGLMTQQNFMLMKQRGVGGEVYTQPPHMLSPQGSLMGPPPQQNLMVSHPLRQRSVSLDSQMGYLPTPGSMANLPF
Take B3: the binding entry in assay [6] is “no binding”.
